Source: publication PMC7480101
These are yes or no findings as the source states them, for the method shown.

Biological target: hAG-p62 (human), Q13501
Test: Fluoppi (phase-separated fluorescent foci in cells); hAG-tagged autophagy adaptor and HA-Ash-6Ub transiently co-expressed in HeLa (WT, Penta KO, FIP200 KO, ATG5 KO, ATG9A KO) or HCT116 (WT, TBK1-/-) cells; foci formation and incorporation of a third protein into the foci read by immunostaining and confocal microscopy; some samples with 2 µM BX-795 for 15 h
Details: remark: other sources report otherwise

B1: ATG13, O75143 1-517 (protein)
chain: METDLNSQDRKDLDKFIKFFALKTVQVIVQARLGEKICTRSSSSPTGSDWFNLAIKDIPEVTHEAKKALAGQLPAVGRSMCVEISLKTSEGDSMELEIWCLEMNEKCDKEIKVSYTVYNRLSLLLKSLLAITRVTPAYRLSRKQGHEYVILYRIYFGEVQLSGLGEGFQTVRVGTVGTPVGTITLSCAYRINLAFMSTRQFERTPPIMGIIIDHFVDRPYPSSSPMHPCNYRTAGEDTGVIYPSVEDSQEVCTTSFSTSPPSQLSSSRLSYQPAALGVGSADLAYPVVFAAGLNATHPHQLMVPGKEGGVPLAPNQPVHGTQADQERLATCTPSDRTHCAATPSSSEDTETVSNSSEGRASPHDVLETIFVRKVGAFVNKPINQVTLTSLDIPFAMFAPKNLELEDTDPMVNPPDSPETESPLQGSLHSDGSSGGSSGNTHDDFVMIDFKPAFSKDDILPMDLGTFYREFQNPPQLSSLSIDIGAQSMAEDLDSLPEKLAVHEKNVREFDAFVETLQ
binding: no binding
